Reference: the supplement of paper PMC11417369
± gives the standard deviation of the averaged measurements. This is one part of the list.

Test system: PfAP2-I AP2 domain 3 (GST-tagged)
Test: gcPBM binding intensity (ln(normalized median fluorescence intensity)); higher = stronger DNA binding
How it was run: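 Each value is the highest Masliner-normalised natural-log median intensity across replicate spots of either orientation of a probe. The probes were primer-extended double-stranded 36-bp intergenic genomic sequences on an Agilent 4 × 180k array, alongside negative controls, exposed for 1 h to GST-tagged P. falciparum DNA-binding domains expressed in E. coli. Bound protein was picked up with Alexa488 anti-GST antibody and scanned at 488 nm.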

| Sequence | gcPBM binding intensity (ln) |
| --- | --- |
| AATAAATTGGTATGTTGTACAAAGTAACCATCGATT [XGTACX_site2823] | 7.63 ± 0.57 |
| AAGGATATAACATACACACACACACCCATATATATA [CACACA_site4142] | 8.38 ± 0.71 |
| AAAGAAATTATTTGTTGTACATATGTTATTTTTTTT [XGTACX_site7570] | 7.75 ± 0.25 |
| TGCAATTTAATATGAGTGCATATATTGAGAAAATAC | 10.04 ± 0.035 |
| TAAAACCTTTAAAATACATGCAGCATATATAAGTAA [TGCATGCA_site181] | 7.87 ± 0.74 |
| GGAAAATATGTTTGTGTGCACAGCTAGCTATTTGTA [GTGCAC_site9637] | 9.61 ± 0.33 |
| AAATAAATTGATTCAACACACACATATGTAGGAAGT [CACACA_site9068] | 8.23 ± 0.35 |
| AATTTTTTTTGTCTCTGTACTTATAAAATATATATG [XGTACX_site4742] | 7.86 ± 0.64 |
| TTTTTTTTTTTCAAGCGTACAAAAAATATATTTAAA [XGTACX_site5327] | 7.87 ± 0.54 |
| CACCCACACCAACACACACACATATATATATATATA [CACACA_site362] | 9.86 ± 0.17 |
| TATATATGGGTAACCTTTTTTTTTTTTTTTCGAACA [CACACA_negctrl_site1303] | 7.33 ± 0.52 |
| AAAAAAAATTTTAATTGTACAAAAAAAAAAAATATA [XGTACX_site2259] | 7.64 ± 0.55 |
| CATATGGCAATAATTACATGCAAAAAAAAAAAAAAA [TGCATGCA_site578] | 7.97 ± 0.61 |
| AATGTAAAAGTAAACACACACATATATTTATACATA [CACACA_site7218] | 7.58 ± 0.59 |
| AGCCATATCTTTTTTGCACACACTACAATAAAACAA [CACACA_site1650] | 9.72 ± 0.17 |
| ACATTTAATGTTATATGTACATAATATTATAAGTAT [XGTACX_site1393] | 8.03 ± 0.47 |
| GTAAATCGACACATACGTACATACATTTATATATAT [XGTACX_site3143] | 8.36 ± 0.61 |
| AAAAAAAAGAAAAACACACACATATATATATATAAT [CACACA_site4707] | 7.63 ± 0.4 |
| ACAGACGTTCAAAGGTGTACGCAAAATGAATAATAT [XGTACX_site7565] | 8.46 ± 0.4 |
| TTCTTATTTAATGTATCACACACGAGAATAAAAAAT [CACACA_site8992] | 7.98 ± 0.48 |
| ATATGTATAAGTATGTATATTTATTTATACTTATGT [GTGCAC_negctrl_site221] | 7.64 ± 0.38 |
| TTAATTAAAACGAATACACACATAAATATGTAAAAG [CACACA_site6707] | 7.69 ± 0.59 |
| TATATATATATATAATGTACTTATATTTTTTTGAGG [XGTACX_site2638] | 9.62 ± 0.25 |

| Sequence | gcPBM binding intensity (ln) |
| --- | --- |
| AAAAAAAAAAAAAAAAGTACATATATATATTTATAT [XGTACX_site5893] | 8.31 ± 0.48 |
| TTATATTTATAAAATTGTATACCCCTTCTAACTTTC [CACACA_negctrl_site250] | 7.68 ± 0.38 |
| ATTGTGCTCATCAGCACACACAACATCATGTAATAA [CACACA_site1863] | 8.71 ± 0.42 |
| TATATATATGGTTTAACACACGAGATAAAAGTATAT [CACACA_site2867] | 8.27 ± 0.77 |
| TTTTAAATTTAATTTACACACTTTTCATAGCATTGA [CACACA_site3794] | 7.8 ± 0.54 |
| TTCTATTCACATTTTACACACGTCCATCGCATTTTA [CACACA_site3453] | 8.29 ± 1 |
| TATATGGTATGTATTACACACATATCACATATAGAT [CACACA_site7426] | 7.53 ± 0.42 |
| TATAAATACGAACACACACACCTTATAATTACTACT [CACACA_site7827] | 7.79 ± 0.54 |
| TTATATTTAGTATATGCACACTTTATGTTTGTTATT [CACACA_site5163] | 9.29 ± 0.21 |
| AAAAACCATTGGCACACACACATAATATATAATATA [CACACA_site4903] | 8.26 ± 0.49 |
| AAGAAAGGTTAAACATGTACATAAATATTTTACATA [XGTACX_site5024] | 7.79 ± 0.42 |
| TCATTGAAAATTGTTGCACACATAATAATTAAATAT [CACACA_site8554] | 8.94 ± 0.16 |
| ACACATATGTCTTCATGTACATAATATATAAATCTT [XGTACX_site3438] | 8.12 ± 0.36 |
| CATAAATCAGCCATAACACACATACATATATACATA [CACACA_site8025] | 7.64 ± 0.52 |
| TATCTTTTTATTTTTTATTTTTTTTTTATAATTTAC [XGTACX_negctrl_site414] | 7.41 ± 0.57 |
| TATATATATACAGTTGCATGTTGTGTTTAAAATTTT [TGCATGCA_site816] | 9.06 ± 0.26 |
| TGTTAAAAAATGGATGCACACATTAAATAAAAAGTA [CACACA_site1660] | 9.11 ± 0.79 |
| TAAAGGTAGATATATTGTACATACACACCTATATAA [XGTACX_site6865] | 7.63 ± 0.51 |
| TCTTGTTTATCAACAGCACACACAACAACAACAACA [CACACA_site8046] | 8.84 ± 0.66 |
| ACATTATATTTGGACTGTACTAATATATTGTTATAT [XGTACX_site5573] | 7.83 ± 0.36 |
| ATATATATATATATATGTACATATTGTATCTTATAC [XGTACX_site5466] | 9.29 ± 0.47 |
| TATACATATATATATTGTACATATTATATATATATA [XGTACX_site3286] | 8.91 ± 0.21 |
